Some of these densities may be calculated back from excess volumes.
Assay: xn = mol fraction of the nth substance listed
Conditions: 100 kPa

CN(C)C=O + CC[n+]1ccn(C)c1.O=S(=O)([O-])C(F)(F)F
x1 = 1
Conditions | mass density [kg/m3]
303.15 K | 939.2
308.15 K | 934.7
313.15 K | 929.6
318.15 K | 924.8
323.15 K | 920

CC[n+]1ccn(C)c1.O=S(=O)([O-])C(F)(F)F + CN(C)C=O
mass density [kg/m3]
Conditions | x2 = 0.0917 | x2 = 0.1933 | x2 = 0.2995 | x2 = 0.406 | x2 = 0.5094 | x2 = 0.5976 | x2 = 0.6947 | x2 = 0.7981 | x2 = 0.8957
298.15 K | 1363.5 | – | 1318.9 | 1290 | 1257.3 | 1224.2 | 1179.9 | 1119.6 | 1047.2
303.15 K | 1359.4 | 1339.1 | 1314.7 | – | 1253.2 | 1219.8 | 1175.4 | 1115.1 | 1042.6
308.15 K | 1355.3 | 1335.1 | 1310.7 | – | 1249 | 1215.7 | 1171.2 | 1110.6 | 1038.3
313.15 K | 1351.2 | 1331 | 1306.5 | 1277.4 | 1244.6 | – | 1166.5 | – | 1033.3
318.15 K | – | – | – | 1273.2 | 1240.4 | 1207.1 | – | 1101.4 | 1028.7
323.15 K | 1343 | 1322.8 | 1298.2 | 1269.2 | 1236.3 | 1202.8 | – | 1096.9 | 1024

OCCO + CC[n+]1ccn(C)c1.O=S(=O)([O-])C(F)(F)F
x1 = 1
Conditions | mass density [kg/m3]
303.15 K | 1106.2
313.15 K | 1099.1
323.15 K | 1092

CC[n+]1ccn(C)c1.O=S(=O)([O-])C(F)(F)F + OCCO
mass density [kg/m3]
Conditions | x2 = 0.0943 | x2 = 0.2021 | x2 = 0.2937 | x2 = 0.408 | x2 = 0.5013 | x2 = 0.6019 | x2 = 0.6917 | x2 = 0.798 | x2 = 0.8964
298.15 K | 1370.6 | 1359.1 | 1347.8 | 1330.8 | 1313 | 1289.5 | 1264.3 | – | 1182.6
303.15 K | – | 1355.2 | 1343.8 | 1327 | 1309.4 | 1286.2 | 1260.8 | 1223.7 | 1179.1
308.15 K | 1362.4 | 1351.2 | 1339.9 | 1323.2 | 1305.8 | – | 1257.4 | 1220.3 | –
313.15 K | 1358.4 | 1347.3 | 1336 | – | 1302.3 | 1279.2 | 1253.9 | 1216.9 | 1171.9
318.15 K | – | 1343.4 | 1332.2 | 1315.7 | 1298.7 | 1275.9 | 1250.7 | 1213.8 | 1168.4
323.15 K | – | – | 1328.4 | – | 1295.1 | 1272.6 | 1247.4 | 1210.6 | 1164.9

— a compilation of properties of binary mixtures (doi:10.1016/j.molliq.2018.09.007)
